# From PubChem BioAssay AID1476 (National Center for Advancing Translational Sciences (NCATS), 2009)
# Out of some 200,000 compounds screened, about 4,500 (2.2%) were called active. This list was built around the results that the source calls inconclusive (neither active nor inactive); the mix of calls is not that of the screen. Calls follow the shape of the dose curve; as a rule, active = well fitted inhibition curve with a large enough effect; inconclusive = small, poorly fitted or top-dose-only effect, or effect the other way; inactive = flat fitted curve, though single readings scatter. Potencies beside an inconclusive call are fits to weak or partial responses and may not hold up.
# Target: Cruzipain (Trypanosoma cruzi) (UniProt P25779)
# Sequence of UniProt P25779 (P25779 whole entry, looked up): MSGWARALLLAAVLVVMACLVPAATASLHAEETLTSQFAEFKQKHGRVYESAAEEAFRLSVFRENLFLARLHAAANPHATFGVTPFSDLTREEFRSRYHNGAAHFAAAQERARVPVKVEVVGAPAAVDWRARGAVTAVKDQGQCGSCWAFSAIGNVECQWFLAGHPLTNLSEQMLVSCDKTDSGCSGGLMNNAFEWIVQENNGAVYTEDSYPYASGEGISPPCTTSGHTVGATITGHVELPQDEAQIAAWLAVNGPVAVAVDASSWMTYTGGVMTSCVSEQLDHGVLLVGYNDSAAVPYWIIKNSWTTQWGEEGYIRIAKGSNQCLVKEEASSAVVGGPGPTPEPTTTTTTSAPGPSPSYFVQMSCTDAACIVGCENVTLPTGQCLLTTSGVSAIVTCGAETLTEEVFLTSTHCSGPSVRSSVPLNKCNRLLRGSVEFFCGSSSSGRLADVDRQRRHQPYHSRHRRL
# Assay: qHTS Assay for Promiscuous and Specific Inhibitors of Cruzain (without detergent); also: nearly all actives have a fitted effect of over 40% in size;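 as to max response, negative = inhibition: plate controls were enzyme without inhibitor for no effect and buffer without enzyme for full effect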
# Settings: purified cruzain, Z-FR-AMC fluorescence, no detergent
# Procedure, shortened: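 Purified cruzain at 1.5 nM, pre-incubated 15 min with compound at room temperature in 100 mM sodium acetate pH 5.5, 5 mM DTT, 0.00005% Triton X-100. Reaction started with 2 uM Z-FR-AMC; AMC fluorescence increase over 60 s gives rate.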
# Potency is read from the fitted curve at half-maximal effect; tags tell the direction and shape of the fitted curve.
Compound,Potency,"max response, negative = inhibition"
Cc1ccc(-n2ncc(C(=O)N3CCN(Cc4ccccc4)CC3)c2C2CCN(C(=O)OC(C)(C)C)CC2)cc1,"inconclusive: 15.8 µM [activator, partial curve]",
CC1=N/C(=C\c2ccc([N+](=O)[O-])cc2)C(=O)N1c1ccc(Br)c(C)c1,active: 7.94 µM,
CCCn1c(=O)c(C(=O)Nc2nnc(CC)s2)c(O)c2ccccc21,"inconclusive: 25.1 µM [activator, single point]",
CCOc1ccc(NC(=O)Cn2cc(C(=O)c3ccc(F)cc3)c(=O)c3cc4c(cc32)OCCO4)cc1,,inactive: 5.65%
COc1ccc(-c2cc(C(F)(F)F)n3nc(C(=O)O)c(Cl)c3n2)cc1OC,,inactive: 3.98%
O=S(=O)(c1ccccc1)N1CCC2(CCN(Cc3ccccc3)CC2)CC1,,inactive: 1.01%
COc1ccc(CSc2nnc(Cc3sc(-c4ccccc4)nc3-c3ccccc3)o2)cc1,"inconclusive: 20 µM [inhibitor, partial curve]",
NS(=O)(=O)c1ccc(CCNC(=O)c2cccnc2)cc1,"inconclusive: 3.16 µM [activator, single point]",
COCCCNC(=O)c1c(N)n(-c2ccc3c(c2)OCO3)c2nc3ccccc3nc12,"inconclusive: 39.8 µM [activator, single point]",
CSc1nnnc2ccccc12,,inactive: 9.7%
Cc1ccc(OC(=O)c2ccc(N3CCOCC3)c([N+](=O)[O-])c2)cc1,"inconclusive: 39.8 µM [activator, single point]",
CCCCN1C(=O)CN(C2CCCCCC2)C(=O)C1c1ccc(OC(C)C)c(OC)c1 (stereo not drawn),"inconclusive: 31.6 µM [activator, single point]",
Cc1cc(C(=O)CN2C(=O)NC3(CCCCC3)C2=O)c(C)n1-c1ccc2c(c1)OCO2,"inconclusive: 39.8 µM [inhibitor, single point]",
O=C(Nc1cccc(C(F)(F)F)c1)C1C2CC3OC(=O)C1C3C2 (stereo not drawn),"inconclusive: 39.8 µM [activator, single point]",
O=C(Nc1ncc(S(=O)(=O)c2ccc([N+](=O)[O-])cc2)s1)c1cccc2ccccc12,active: 12.6 µM,
O=C(CN1C(=O)S/C(=C\C=C\c2ccccc2)C1=O)Nc1ccc(O)cc1,,inactive: -4.51%
COc1cc(C(=O)Nc2nc(C)c(Cc3ccc4c(c3)OCO4)s2)cc(OC)c1OC,"inconclusive: 20 µM [activator, single point]",
CCC(/C=N/NC(=O)CCCCC(=O)N/N=C/C(CC)CC)CC,"inconclusive: 25.1 µM [activator, single point]",
CCCN(CCC)C(=O)SCC,,inactive: -3.35%
COC(=O)C(Cc1cnc(Cl)s1)(C(=O)OC)c1ccc([N+](=O)[O-])cc1[N+](=O)[O-],"inconclusive: 25.1 µM [inhibitor, single point]",
COc1ccc(NC(=O)C2=C(C)C(=O)OC23CCN(C(C)C)CC3)cc1Cl,,inactive: -17.4%
Cc1cccc(N2CCN(C(=O)c3cc4n(n3)C(C(F)(F)F)CC(c3ccco3)N4)CC2)c1C (stereo not drawn),"inconclusive: 25.1 µM [activator, partial curve]",
Cc1ccccc1NC(=O)CSc1nc2ccc(NC(=O)c3ccccc3)cc2s1,"inconclusive: 39.8 µM [inhibitor, single point]",

Compound,Potency,"max response, negative = inhibition"
CCOc1ccccc1-n1c(SCC(=O)Nc2ccc(CC)cc2)nc2n[nH]c(C)c2c1=N,active: 6.31 µM,
COc1ccc(C(=O)Oc2c(Sc3ccccc3)c(C)nn2-c2ccccc2)cc1OC,,inactive: -24.1%
COc1ccc(C)cc1NC(=O)CN1CCN(S(=O)(=O)c2ccc(Cl)cc2)CC1,,inactive: 24.7%
COCCN1C(=O)C(=O)/C(=C(/O)c2ccc(S(=O)(=O)N3CCOCC3)cc2)C1c1ccc(C(C)C)cc1 (stereo not drawn),"inconclusive: 15.8 µM [activator, partial curve]",
CCCCc1nc(NCCNC(=O)c2ccco2)c(C#N)c2c1CSC(C)(C)C2,"inconclusive: 39.8 µM [activator, single point]",
O=C(Nc1ccc2nc(SCC(=O)N3CCCc4ccccc43)sc2c1)c1cccc(Cl)c1,active: 6.31 µM,
CCc1ccc(/C=N/NC(=O)c2cc(-c3ccncc3)nc3ccccc23)s1,"inconclusive: 39.8 µM [activator, single point]",
COc1ccc(OC)c(CCNc2nccn(-c3ccc(C)c(C)c3)c2=O)c1,,inactive: 2.16%
CC1CCc2cc(F)cc3c(O)c(C(=O)NCC4CCCO4)c(=O)n1c23 (stereo not drawn),"inconclusive: 39.8 µM [activator, single point]",
Cn1c(SCc2cccc(F)c2)nc2c([nH]c3ccccc32)c1=O,,inactive: -6.37%
O=C(NCC(c1cccnc1)N1CCOCC1)C(=O)Nc1ccc(F)cc1 (stereo not drawn),"inconclusive: 25.1 µM [activator, single point]",
COc1ccc(N2CCN(Cc3cc(=O)oc4ccc(OC)cc34)CC2)cc1,,inactive: 3.48%
CCc1ccccc1Nc1cc(C(=O)NCCc2ccccc2)c2ccccc2n1,"inconclusive: 39.8 µM [inhibitor, single point]",
Cn1c(N)c(C(=O)COC(=O)c2cc(-c3ccco3)nc3ccccc23)c(=O)n(Cc2ccccc2)c1=O,"inconclusive: 39.8 µM [activator, single point]",inactive: 8.61%
Cc1nc(N)sc1-c1csc(Nc2ccccn2)n1,active: 12.6 µM,
COc1cccc(-c2cc(C(=O)N3CCN(C(c4ccccc4)c4ccccc4)CC3)no2)c1,"inconclusive: 39.8 µM [inhibitor, single point]",
N#Cc1c(N)nc(SCc2ccccc2)c(C#N)c1-c1ccco1,"inconclusive: 39.8 µM [inhibitor, single point]",
COc1ccc(-c2noc(Cn3c(=O)c4ccccc4n(CC(=O)Nc4cccc(C(F)(F)F)c4)c3=O)n2)cc1,active: 15.8 µM,
COc1cc(OC)cc(C(=O)Nc2ccc(-c3nc4ccccc4o3)cc2)c1,"inconclusive: 31.6 µM [activator, single point]",
CCCCCCCCCCCCCCCC(=O)OC(CC(=O)O)C[N+](C)(C)C (stereo not drawn),"inconclusive: 12.6 µM [activator, partial curve]",
NC(=O)CNC(=O)[C@@H]1CC2(CC(c3ccccc3)=NO2)CN1C(=O)c1ccc(Br)cc1 (stereo partly drawn),"inconclusive: 39.8 µM [activator, single point]",
COC(=O)C(C)NC(=O)N1CCN(c2nnc(C)c3c(C)n(-c4ccc(Cl)cc4)nc23)CC1 (stereo not drawn),,inactive: -2.68%
Cc1ccc(S(=O)(=O)c2nnn3c2nc(NCc2cccs2)c2sccc23)cc1C,"inconclusive: 31.6 µM [inhibitor, single point]",

Compound,Potency,"max response, negative = inhibition"
CC12CCC(C(=O)N(NC(=O)c3ccccc3Cl)C1=O)C2(C)C (stereo not drawn),,inactive: 0.578%
CC(=O)c1ccc(C(=O)N(Cc2cccnc2)c2nc3c(Cl)cccc3s2)cc1,"inconclusive: 25.1 µM [activator, partial curve]",
COc1cc2c(cc1OC)C(COc1ccc(F)cc1)N(C(=O)c1ccccc1F)CC2 (stereo not drawn),,inactive: 28.1%
CSc1cccc(NC(=O)Cn2nc(C)c3sc4ccccc4c3c2=O)c1,,inactive: 14.2%
CCN(CC)c1ccc(CNc2ccc(Br)cn2)cc1,"inconclusive: 31.6 µM [inhibitor, single point]",
CCOCCCNC(=O)Nc1cc(C(=O)NCc2ccc(C(C)C)cc2)ccc1N1CCCC1,"inconclusive: 39.8 µM [activator, single point]",
CC1=C(SCCC#N)S/C(=C2\SC(C)=C(SCCC#N)S2)S1,active: 25.1 µM,
COc1ccc(S(=O)(=O)Oc2ccc3c(c2)O/C(=C\c2cccnc2)C3=O)cc1,"inconclusive: 31.6 µM [activator, single point]",
C/C=C/COC(=O)c1[nH]c2c(c1C)C(=O)CC(c1ccc(N(C)C)cc1)C2 (stereo not drawn),active: 31.6 µM,
Nc1c(-c2nc(-c3ccccc3)cs2)c2ccccn2c1C(=O)c1ccc2c(c1)OCO2,"inconclusive: 31.6 µM [inhibitor, single point]",
CCOC(=O)c1ccccc1Nc1cc(C)nc2nc(-c3ccco3)nn12,"inconclusive: 31.6 µM [activator, single point]",
Cc1csc(NC(=O)c2ccc(-c3ccc(Cl)cc3Cl)o2)n1,active: 10 µM,
COc1cccc(CNc2ncc(-c3ccc(Br)cc3)n2C)c1,,inactive: -12.7%
O=C(NCCc1ccccc1)c1c(O)c2cccc3c2n(c1=O)CC3,"inconclusive: 39.8 µM [activator, single point]",
COc1cccc2sc(N3CCN(C(=O)CS(=O)(=O)c4ccc(Cl)cc4)CC3)nc12,"inconclusive: 39.8 µM [activator, single point]",
Cc1ccc(S(=O)(=O)c2c(COC(=O)c3ccccc3Cl)c(-c3ccccc3)nn2C)cc1,active: 20 µM,
CCN(CC)CCCNC(=O)CCc1c(C)nc2c(c1C)c(=O)n(C)c(=O)n2C,,inactive: -9.83%
Cc1ccc(S(=O)(=O)N(C(=O)c2ccncc2)c2ccc(OC(=O)c3ccncc3)c3ccccc23)cc1,"inconclusive: 31.6 µM [activator, single point]",
CCOc1ccc(CNC(=O)c2ccc(NC(=O)N3CCSc4ncccc43)cc2)cc1,,inactive: 14.9%
CCCc1ccc(-c2cc(N)n[nH]2)cc1,"inconclusive: 20 µM [inhibitor, single point]",
O=C(Cn1ncc2c(=O)oc3ccccc3c21)Nc1nc2ccccc2s1,"inconclusive: 39.8 µM [inhibitor, single point]",
